Test results published in PMC4336329 (PLoS ONE, 2015).
Out of some 310,000 compounds screened, about 2,200 (0.71%) showed an effect of 50% or more. The effect is printed as a negative number. Some of the results follow.

molecular target: human ether-à-go-go-related gene (hERG) potassium channel (human, UniProt Q12809); test: primary screen, population patch clamp on CHO cells stably expressing hERG
Sequence (Q12809 whole entry, looked up): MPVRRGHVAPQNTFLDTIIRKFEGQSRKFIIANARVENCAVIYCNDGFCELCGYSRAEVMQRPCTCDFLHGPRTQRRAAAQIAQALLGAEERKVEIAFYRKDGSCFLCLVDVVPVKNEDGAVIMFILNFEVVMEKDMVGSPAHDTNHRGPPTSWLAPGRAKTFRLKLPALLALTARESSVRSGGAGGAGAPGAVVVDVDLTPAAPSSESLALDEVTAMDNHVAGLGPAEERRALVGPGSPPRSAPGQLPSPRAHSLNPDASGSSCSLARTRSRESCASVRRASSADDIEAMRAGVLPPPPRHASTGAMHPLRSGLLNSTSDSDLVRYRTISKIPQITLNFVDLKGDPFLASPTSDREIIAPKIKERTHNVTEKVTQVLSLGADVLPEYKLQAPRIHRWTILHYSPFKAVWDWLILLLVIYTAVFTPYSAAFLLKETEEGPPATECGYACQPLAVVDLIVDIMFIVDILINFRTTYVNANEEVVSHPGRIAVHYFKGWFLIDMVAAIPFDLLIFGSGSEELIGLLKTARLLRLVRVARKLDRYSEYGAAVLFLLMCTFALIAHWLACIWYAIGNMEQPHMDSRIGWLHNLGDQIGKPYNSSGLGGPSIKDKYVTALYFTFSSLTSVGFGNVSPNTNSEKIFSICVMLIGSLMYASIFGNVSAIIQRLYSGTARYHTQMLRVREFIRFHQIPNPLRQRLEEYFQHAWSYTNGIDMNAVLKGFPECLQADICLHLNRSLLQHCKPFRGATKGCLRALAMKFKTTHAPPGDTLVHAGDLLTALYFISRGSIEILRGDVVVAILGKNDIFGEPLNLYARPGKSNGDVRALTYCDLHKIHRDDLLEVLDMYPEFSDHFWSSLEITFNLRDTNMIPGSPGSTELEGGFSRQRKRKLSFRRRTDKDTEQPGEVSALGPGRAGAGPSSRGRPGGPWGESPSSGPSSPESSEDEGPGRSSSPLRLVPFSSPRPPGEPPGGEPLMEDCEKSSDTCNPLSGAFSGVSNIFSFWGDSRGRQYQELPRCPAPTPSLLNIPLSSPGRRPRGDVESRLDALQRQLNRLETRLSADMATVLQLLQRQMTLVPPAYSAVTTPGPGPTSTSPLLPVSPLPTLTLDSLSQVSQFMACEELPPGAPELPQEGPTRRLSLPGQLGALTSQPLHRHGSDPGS

Row | SMILES | hERG current change (%, negative = inhibition) at 1uM [%]
1 | Cc1cc(=O)[nH]c(SCC(=O)Nc2cc(S(=O)(=O)N3CCCC3)ccc2Cl)n1 | 10.9
2 | O=S(=O)(N1CCCCCC1)N1CCN(S(=O)(=O)N2CCOCC2)CC1 | 9.27
3 | COC(=O)CC1C(=O)NCCN1C(=S)NC(=O)C(c1ccccc1)c1ccccc1 (stereo not drawn) | 9.91
4 | CCn1c(CC(=O)Nc2ccccc2OC)nnc1SCC(=O)Nc1ccccc1F | 6.57
5 | Cn1cnnc1SCC(=O)Nc1ccccc1Sc1ccccc1 | 0.309
6 | O=C(NCCN1CCOCC1)/C(=C/c1ccc(Cl)cc1)NC(=O)c1ccccc1 | -83.1
7 | CCn1ncc(/C=N\NC(=O)COc2ccccc2)c1C | 6.41
8 | CCCCCCn1c(N2CCC(C(N)=O)CC2)nc2c1c(=O)[nH]c(=O)n2C | 6.28
9 | Cc1cccc(N2C(=O)CC(NNc3nc4ccccc4s3)C2=O)c1 (stereo not drawn) | 12.7
10 | CC(C)Cc1nnc(NC(=O)C2CC(=O)N(Cc3ccccc3)C2)s1 (stereo not drawn) | 7.39
11 | CC1(C)Cc2ccccc2-c2nnc(SCC(=O)Nc3nc4ccccc4s3)n21 | -6.96
12 | CCOC(=O)N1CCC(NS(=O)(=O)c2ccc(C)cc2)CC1 | 11.4
13 | CC(=O)Nc1ccccc1Nc1nc(NCCO)nc(N2CCCC2)n1 | 6.85
14 | CCCCCCNc1nc(NCc2ccco2)nc(OCC)n1 | 11.9
15 | COc1ccc(C)cc1NC(=O)CN1C(=O)COc2ccc(S(=O)(=O)N3CCCCCC3)cc21 | 13.4
16 | Oc1ccc2cc(Br)ccc2c1CN1CCCC1 | 3.76
17 | CCOc1ccc(S(=O)(=O)NCCC(=O)NCCCSc2ccccc2)cc1 | 3.23
18 | CC(OC(=O)c1nc(-c2ccccc2)n(-c2ccccc2)n1)C(=O)Nc1cc(Cl)cc(Cl)c1 (stereo not drawn) | 4.36
19 | Fc1ccc(-c2nnc3ccc(N4CCc5ccccc5C4)nn23)cc1 | 2.66
20 | O=[N+]([O-])c1cccc2ccc(/C=C/c3cccc(Br)c3)nc12 | 21
21 | O=C1N(CN2CCOCC2)c2ccccc2C1(O)c1c[nH]c2ccccc12 (stereo not drawn) | 16.7
22 | O=C1Cc2cc(NS(=O)(=O)c3ccc(F)cc3)cc3c2N1CCC3 | 5.85

Row | SMILES | hERG current change (%, negative = inhibition) at 1uM [%]
23 | Br.Cc1csc(=Nc2ccccc2)n1CCO | 2.42
24 | COC(=O)c1ccc(NC(=O)C23CC4CC(C2)CC(n2cncn2)(C4)C3)cc1 | -13
25 | Cc1cccc(/N=C/c2c(O)ccc3oc4c(c23)CCCC4)n1 | 1.89
26 | COc1cccc(CC(=O)OCC(=O)NC(C)c2ccc(F)cc2)c1 (stereo not drawn) | 10.4
27 | N/C(CN1CCSCC1)=N\OCc1c(F)cccc1Cl | 15.2
28 | COc1ccc([C@H]2CC(=O)C=C(c3ccc(C(F)(F)F)c(C(F)(F)F)c3)C2)cc1OC | 13.4
29 | Cc1ccc(C(=O)COc2ncnc3cc(Cl)ccc23)cc1 | 0.0315
30 | O=C(O)CN1C(=O)/C(=C\c2cc(Br)ccc2OCc2ccc(F)cc2)SC1=S | 5.18
31 | NC(=O)c1c(NC(=O)c2ccc(F)cc2Cl)sc2c1CCC2 | 10.8
32 | CCn1cc(Br)c(C(=O)Nc2ccc(C(=O)OC(C)C)cc2)n1 | 12.1
33 | NC(=NCCc1c[nH]c2ccccc12)NS(=O)(=O)c1ccc(F)cc1 | 13.8
34 | CCN(CC)S(=O)(=O)c1ccc(C)c(NC(=O)COC(=O)c2ccc(C)c(S(=O)(=O)N3CCOCC3)c2)c1 | -3.92
35 | Cn1c(=S)n(C)c2ccccc21 | 12.5
36 | CCc1nnc(NC(=O)c2nc(S(=O)(=O)Cc3ccccc3)ncc2Cl)s1 | 5.43
37 | COCCCNC(=O)C1CCC(=O)N(c2ccc3c(c2)OCO3)C1c1ccc(OC)cc1 (stereo not drawn) | 12.8
38 | O=C(NC1CC1)C1CCN(S(=O)(=O)c2cc(Cl)ccc2Cl)CC1 | 16.1
39 | Cc1cc(C)c2c(N)c(C(=O)c3cccc(Cl)c3)sc2n1 | 3.69
40 | CC(=O)N[C@H]1[C@H](OCc2ccccc2F)O[C@H](COC(C)=O)[C@@H](OC(C)=O)[C@@H]1OC(C)=O | 13.8
41 | Cn1ccnc1C(OC(=O)c1ccccc1)C(F)(F)F (stereo not drawn) | 19.2
42 | Cc1cccc(N=C2NC(=O)/C(=C/c3cccn3C)S2)c1 | 15.3
43 | COC(=O)C(Cc1ccccc1)NC(=O)CCc1c[nH]c2ccccc12 (stereo not drawn) | 9.86
44 | COc1ccc(CCNC(=O)c2ccccc2NS(=O)(=O)c2c(F)cccc2F)cc1 | 16.9

Row | SMILES | hERG current change (%, negative = inhibition) at 1uM [%]
45 | CNc1ccc(Br)cc(C(=O)/C=C/c2ccc3c(c2)OCO3)c1=O | 5.28
46 | CC(C)c1ccc(C(=O)NCCCN(C)C)cc1 | 9.58
47 | COc1ccc(C(CC(=O)Nc2cc([N+](=O)[O-])ccc2OC)c2ccccc2)cc1 (stereo not drawn) | 11.9
48 | Cn1cc(C(=O)NCc2ccc(Cl)cc2)c(=O)c2cc(S(=O)(=O)N3CCOCC3)ccc21 | 12
49 | CCc1cc(=O)oc2cc(OCC(=O)N3C[C@H]4C[C@@H](C3)c3cccc(=O)n3C4)ccc12 | 12.3
50 | CCOCCn1c(N(C)Cc2ccccc2)nc2c1c(=O)[nH]c(=O)n2C | -6.13
51 | CCn1ccnc1CNC(=O)CC1C(=O)NCCN1CCCc1ccccc1 (stereo not drawn) | 6.92
52 | Cc1ccc(N(Cc2ccc(C(=O)Nc3ccccc3C(=O)NCc3ccco3)cc2)S(C)(=O)=O)cc1C | -2.11
53 | O=C(COC(=O)C1CCC1)Nc1cccc(Cl)c1 | 5.76
54 | CC(=O)C1=C(O)C(=O)N(Cc2ccco2)C1c1ccc2c(c1)OCO2 (stereo not drawn) | 8.86
55 | O=C(NNc1nc2ccc(F)cc2s1)c1cccc(F)c1 | 29.4
56 | Cc1cc(C(C)(C)C)oc1C(=O)O | 9.58
57 | CCOC(=O)N/N=C/c1ccccc1OCc1ccc(Cl)cc1 | 18.7
58 | C=CCn1c(=O)c(C(=O)NC(C)c2ccccc2)c(O)c2ccccc21 (stereo not drawn) | 12.3
59 | O=C(COC(=O)C12CC3CC(CC(O)(C3)C1)C2)N1CCN(S(=O)(=O)c2ccc(Cl)cc2)CC1 | 8.52
60 | CCc1nc2ccccc2nc1N1CCN(S(=O)(=O)c2ccc(Cl)cc2)CC1 | 16.2
61 | O=[N+]([O-])c1ccc(-c2ccc(/C=N/Nc3nc(N4CCCC4)nc(N4CCCC4)n3)o2)cc1 | 20.4
62 | O=C(/C=C/c1cccc(F)c1)NCc1ccc2c(c1)OCO2 | 11.8
63 | COCCn1c(C)cc(C(=O)COC(=O)c2n[nH]c3ccccc23)c1C | 7.23
64 | CCc1ccc(S(=O)(=O)Nc2ccc(O)c3ccccc23)cc1 | 0.287
65 | O=C(COC(=O)/C=C/c1ccco1)Nc1ccccc1 | 6.35
66 | CSCCC(NC(=O)c1ccccc1Br)C(=O)N1CCCC(C(F)(F)F)C1 (stereo not drawn) | 0.221

Row | SMILES | hERG current change (%, negative = inhibition) at 1uM [%]
67 | c1ccc(CSc2nnc(-c3ccccn3)n2-c2ccccc2)cc1 | 3.32
68 | Cn1nccc1C(=O)N/N=C/c1c(O)ccc2ccccc12 | 9.12
69 | CCC(C)(O)c1[nH]c2ccc(C#N)cc2c1C (stereo not drawn) | 15.3
70 | COc1ccccc1Oc1ccc2c(c1)C(=O)N(c1ccc(C)cc1)C2=O | 12.1
71 | CCC(CC)c1nn2c(N)c(/C=C3\C(C)=Nc4ccccc43)c(=O)nc2s1 | 15
72 | O=C(NCc1cccnc1)c1ccc(Cl)c(S(=O)(=O)N2CCOCC2)c1 | 0.269
73 | [O-][n+]1cccc(C(O)c2ccccc2)c1 (stereo not drawn) | 19.5
74 | O=C([C@H](Cc1ccccc1)NS(=O)(=O)c1ccc(Cl)cc1)N1CC[C@@]2(O)CCCC[C@H]2C1 | 10.4
75 | c1cnc(N2CCN(Cc3c[nH]c4ccccc34)CC2)nc1 | -0.223
76 | CCn1c2ccccc2c2nnc(SCC(=O)NCCOC)nc21 | 5.66
77 | CCCCn1nc(C(=O)Nc2ccc(-n3cnnn3)cc2)c2ccccc2c1=O | 1.01
78 | COc1cccc(C(=O)Nc2ccc(Oc3cccc(C(F)(F)F)c3)nc2)c1 | 11
79 | CC(C)(C)C(=O)Nc1ccc(-c2cnco2)cc1 | 12.7
80 | NC(=O)C1CCN(C(=O)c2ccc(CS(=O)(=O)c3c(Cl)cccc3Cl)o2)CC1 | 3.48
81 | COc1cc(OC)c(C(=O)OCC(=O)Nc2cc(C)on2)cc1OC | 19.1
82 | O=C(COc1cc2oc(=O)c3c(c2cc1Cl)CCC3)NCC1CCC(C(=O)O)CC1 (stereo not drawn) | 16.6
83 | COCC1CCN(Cc2nc(COc3ccccc3)no2)C1 (stereo not drawn) | 15.1
84 | Cc1ccc(/C=C(\C#N)c2nc3ccccc3[nH]2)s1 | -1.83
85 | COc1ccc(-c2ccc([C@H]3[C@@H]4C=CCC[C@@]4(C)C(=O)N3Cc3ccccc3)c(F)c2)cc1OC | 3.85
86 | CN1CCC(OC(=O)COc2ccc(F)cc2)CC1.Cl | -1.62
87 | O=C1NC(=O)C2C1C(c1ccc([N+](=O)[O-])cc1)=NN2Cc1ccccc1 (stereo not drawn) | 5.82
